{"source": "PubChem BioAssay AID504332", "about": "(National Center for Advancing Translational Sciences (NCATS), 2011)", "note": "Hit rate of the full screen: of about 350,000 compounds, about 31,000 (8.9%) were called active. The shares of active, inactive and inconclusive entries below differ from those in the screen. The call rests on the fitted dose curve; in most records, active means well fitted inhibition curve with a large enough effect; inconclusive means small, poorly fitted or top-dose-only effect; inactive means no such curve, though single readings can be large or run the other way. Potencies of inconclusive entries are doubtful fits and often do not repeat. On the % scale 0 is the no-effect control and ±100 the full control effect; potency means the concentration at half of the fitted maximal effect; tags describe the fitted curve by direction and shape.", "data": [{"target": "Histone-lysine N-methyltransferase EHMT2 (Homo sapiens) (UniProt Q96KQ7)", "sequence (Q96KQ7 whole entry, looked up)": "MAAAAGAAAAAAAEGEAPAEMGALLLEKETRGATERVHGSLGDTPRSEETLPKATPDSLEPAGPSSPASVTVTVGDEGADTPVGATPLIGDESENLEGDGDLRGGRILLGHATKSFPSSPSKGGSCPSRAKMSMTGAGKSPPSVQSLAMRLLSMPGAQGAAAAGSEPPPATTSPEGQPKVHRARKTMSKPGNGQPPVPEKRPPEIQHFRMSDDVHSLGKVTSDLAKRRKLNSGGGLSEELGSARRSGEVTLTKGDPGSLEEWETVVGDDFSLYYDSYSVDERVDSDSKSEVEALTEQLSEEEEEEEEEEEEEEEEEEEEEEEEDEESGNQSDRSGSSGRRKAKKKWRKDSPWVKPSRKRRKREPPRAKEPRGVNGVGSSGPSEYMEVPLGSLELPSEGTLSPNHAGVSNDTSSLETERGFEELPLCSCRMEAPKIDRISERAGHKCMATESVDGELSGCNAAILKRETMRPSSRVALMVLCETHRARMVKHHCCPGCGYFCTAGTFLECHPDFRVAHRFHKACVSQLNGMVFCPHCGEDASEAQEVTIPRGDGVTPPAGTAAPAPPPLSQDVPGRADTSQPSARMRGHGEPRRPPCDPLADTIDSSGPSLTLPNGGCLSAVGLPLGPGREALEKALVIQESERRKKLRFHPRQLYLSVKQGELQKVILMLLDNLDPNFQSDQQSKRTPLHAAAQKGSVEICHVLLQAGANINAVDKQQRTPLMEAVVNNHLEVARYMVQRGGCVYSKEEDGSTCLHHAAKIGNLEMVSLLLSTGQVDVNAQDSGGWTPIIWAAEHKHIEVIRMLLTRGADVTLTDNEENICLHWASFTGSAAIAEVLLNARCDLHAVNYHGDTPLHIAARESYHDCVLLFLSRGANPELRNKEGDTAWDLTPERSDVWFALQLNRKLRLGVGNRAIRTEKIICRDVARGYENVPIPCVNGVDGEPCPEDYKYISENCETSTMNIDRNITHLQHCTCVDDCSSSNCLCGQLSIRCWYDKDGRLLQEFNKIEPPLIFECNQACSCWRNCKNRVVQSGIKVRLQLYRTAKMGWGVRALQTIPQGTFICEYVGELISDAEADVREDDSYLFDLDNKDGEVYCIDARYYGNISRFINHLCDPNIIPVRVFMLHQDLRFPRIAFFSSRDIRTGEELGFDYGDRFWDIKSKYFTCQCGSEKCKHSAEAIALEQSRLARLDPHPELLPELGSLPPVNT", "assay": "qHTS Assay for Inhibitors of Histone Lysine Methyltransferase G9a; further: nearly all actives have a fitted effect of over 75% in size", "settings": "G9a H3K9 monomethylation, AlphaScreen, 2 h; activity, negative = inhibition: at 59 µM (top of the series) unless noted", "in_short": "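Using a bead-based AlphaScreen, monomethylated H3K9 product from 2 h room-temperature reactions (G9a 20 nM, peptide 500 nM, SAM 20 uM) was detected with 0.5 ug/mL rabbit anti-H3K9me1 antibody.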", "values": [{"smiles": "COc1ccc(N(CC(=O)NC2CCCCC2)C(=O)CCC(=O)Nc2nc(C)cs2)cc1OC", "activity, negative = inhibition": "inactive: 21.1%"}, {"smiles": "CCOc1ccc(N2CC(C(=O)Nc3ccc(S(=O)(=O)N4CCCCC4)cc3)CC2=O)cc1", "note": "(stereo unspecified)", "Potency": "active: 39.8 µM"}, {"smiles": "CC(=O)NS(=O)(=O)c1ccc(N=c2ssc3c2-c2ccc(C)cc2NC3(C)C)cc1", "Potency": "inconclusive: 25.1 µM [inhibitor, single point]"}, {"smiles": "O=S(=O)(Nc1ccc(Br)cn1)c1ccc2ccccc2c1", "Potency": "inconclusive: 89.1 µM [inhibitor, single point]"}, {"smiles": "COc1c(O)ccc(/C=N/NC(=O)c2ccc3c(c2)OCCO3)c1[N+](=O)[O-]", "activity, negative = inhibition": "inactive: 2.19% [at 102 µM]"}, {"smiles": "N#C/C(=C\\c1c(N2CCC(C(N)=O)CC2)nc2ccccn2c1=O)C(=O)NCc1ccco1", "activity, negative = inhibition": "inactive: 5.31%"}, {"smiles": "Oc1ccccc1CNCc1ccccc1", "Potency": "inconclusive: 79.4 µM [inhibitor, single point]"}, {"smiles": "Cc1cc(OCC(=O)Nn2cnnc2)c(C)cc1Br", "Potency": "inconclusive: 28.2 µM [inhibitor, partial curve, poor fit]"}, {"smiles": "CSc1oc(-c2ccccc2)nc1C(N)=O", "Potency": "inconclusive: 79.4 µM [inhibitor, single point]"}, {"smiles": "Cc1ccc(CN(C)C(=O)COC(=O)CSc2cc(C)c3ccccc3n2)cc1", "activity, negative = inhibition": "inactive: 0.22% [at 12.7 µM]"}, {"smiles": "O=C(Cc1ccccc1F)Nc1nc2ccccc2[nH]1", "activity, negative = inhibition": "inactive: -26.7% [at 102 µM]"}, {"smiles": "COC(=O)c1ccc(NC(=S)N2CCC(C(N)=O)CC2)cc1", "Potency": "inconclusive: 25.1 µM [inhibitor, single point]"}, {"smiles": "Cc1cccc(C)c1NC(=O)CNC(=O)Cn1nc(C)c(C)c(C#N)c1=O", "Potency": "inconclusive: 70.8 µM [inhibitor, single point]"}, {"smiles": "COc1ccc(Cl)cc1C(Nc1cccnc1)c1ccc2cccnc2c1O", "note": "(stereo unspecified)", "Potency": "active: 3.98 µM"}, {"smiles": "COCCCn1nnnc1SCC(=O)Nc1nc(C)c(C)s1", "Potency": "inconclusive: 39.8 µM [inhibitor, single point]"}, {"smiles": "COc1ccc(Cl)cc1NC(=O)CSc1nnc(Cc2ccc(C)cc2)c(=O)[nH]1", "activity, negative = inhibition": "inactive: 1.2% [at 102 µM]"}, {"smiles": "Cc1cccc(C)c1NC(=O)CNC(=O)CCCN1C(=O)c2cccc3cccc(c23)C1=O", "activity, negative = inhibition": "inactive: 11.6% [at 12.7 µM]"}, {"smiles": "CC(C)c1ccc2nc(SCC(=O)NCC3CCCO3)c(C#N)cc2c1", "note": "(stereo unspecified)", "activity, negative = inhibition": "inactive: 12% [at 102 µM]"}, {"smiles": "COc1ccc(OC)c(C(=O)N2CCC(CCC(=O)NC3CC3)CC2)c1", "activity, negative = inhibition": "inactive: 10.4% [at 102 µM]"}, {"smiles": "CC(C)(C)c1csc(Sc2ncccc2[N+](=O)[O-])n1", "Potency": "inconclusive: 44.7 µM [inhibitor, partial curve]"}, {"smiles": "CCn1c2c(c(=O)n3ncc(C(=O)N4CCN(c5ccc(Cl)cc5)CC4)c13)CN(Cc1ccc(OC)cc1)CC2", "activity, negative = inhibition": "inactive: -6.27%"}]}]}
